Data: publication PMC4336329 (PLoS ONE, 2015)
Out of some 310,000 compounds screened, about 2,200 (0.71%) showed an effect of 50% or more. Effects have a minus sign here. This is one part of the list.

The compounds below were run against human ether-à-go-go-related gene (hERG) potassium channel (human, UniProt Q12809) (assay: primary screen, population patch clamp on CHO cells stably expressing hERG).
Chain of human ether-à-go-go-related gene (hERG) potassium channel (Q12809 whole entry, looked up): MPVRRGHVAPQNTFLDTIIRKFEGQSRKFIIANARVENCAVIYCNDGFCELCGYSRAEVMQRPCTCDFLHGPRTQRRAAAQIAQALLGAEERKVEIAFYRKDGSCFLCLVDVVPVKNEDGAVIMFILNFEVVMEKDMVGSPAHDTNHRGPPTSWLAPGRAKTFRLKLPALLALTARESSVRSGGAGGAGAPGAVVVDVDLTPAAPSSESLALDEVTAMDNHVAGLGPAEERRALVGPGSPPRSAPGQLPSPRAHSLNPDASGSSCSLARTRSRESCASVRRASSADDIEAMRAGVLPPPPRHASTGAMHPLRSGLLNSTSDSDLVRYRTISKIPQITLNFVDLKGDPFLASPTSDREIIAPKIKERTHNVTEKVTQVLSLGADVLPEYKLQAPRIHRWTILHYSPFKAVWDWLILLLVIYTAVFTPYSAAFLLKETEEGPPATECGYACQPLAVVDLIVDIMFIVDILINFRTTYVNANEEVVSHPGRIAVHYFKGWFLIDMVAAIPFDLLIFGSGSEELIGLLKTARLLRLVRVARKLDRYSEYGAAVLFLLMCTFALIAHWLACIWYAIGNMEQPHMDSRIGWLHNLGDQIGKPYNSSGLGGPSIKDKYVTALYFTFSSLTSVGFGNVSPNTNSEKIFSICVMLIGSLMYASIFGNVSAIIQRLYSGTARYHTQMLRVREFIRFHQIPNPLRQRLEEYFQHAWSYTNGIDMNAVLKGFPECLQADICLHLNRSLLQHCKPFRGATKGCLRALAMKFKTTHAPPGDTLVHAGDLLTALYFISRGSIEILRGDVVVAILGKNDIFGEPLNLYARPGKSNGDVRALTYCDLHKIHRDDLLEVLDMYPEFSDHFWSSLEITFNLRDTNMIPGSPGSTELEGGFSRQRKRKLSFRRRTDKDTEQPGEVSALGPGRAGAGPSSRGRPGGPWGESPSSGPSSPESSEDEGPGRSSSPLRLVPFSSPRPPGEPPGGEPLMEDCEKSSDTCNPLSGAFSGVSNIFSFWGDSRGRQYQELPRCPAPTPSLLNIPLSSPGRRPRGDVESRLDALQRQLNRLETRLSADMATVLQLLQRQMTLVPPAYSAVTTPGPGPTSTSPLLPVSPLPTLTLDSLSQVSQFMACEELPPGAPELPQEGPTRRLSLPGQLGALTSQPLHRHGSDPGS

Row | SMILES | hERG current change (%, negative = inhibition) at 1uM
1 | COc1ccc(NC(=O)c2csc(C)c2)cc1OC | 8.94%
2 | CC(C)S(=O)(=O)c1csc(NC(=O)Nc2cccc([N+](=O)[O-])c2)c1Cl | -17%
3 | CCOCCCNC(=S)Nc1ccc(S(N)(=O)=O)cc1 | 1.01%
4 | CCCC(=O)Nc1ccc(Cl)c(NC(=O)C(C)(C)C)c1 | -1.36%
5 | CCOC(=O)C1CCN(S(=O)(=O)c2cccc(-c3cn4cccc(C)c4n3)c2)CC1 | 5.94%
6 | CC(O)c1nc2ccccc2n1C1CCCCC1 (stereo not drawn) | 4.01%
7 | COc1cc(/C=N/NC(=O)c2ccc3c(c2)OCO3)ccc1O | 6.85%
8 | O=S(=O)(c1ccc(NC(=S)NCCc2ccccc2)cc1)N1CCOCC1 | 3.71%
9 | CCCc1nnc(NC(=O)CCC(=O)N2CCCCC2)s1 | 5.09%
10 | COCCn1c(SCC(=O)NC2CCCC2)nnc1C(C)C | 12.2%
11 | Cc1ccc2cc(CN(CC3CCCO3)C(=S)NCc3ccco3)c(=O)[nH]c2c1 (stereo not drawn) | 15.3%
12 | CCOC(=O)c1ccc(CNC(=O)CCC(=O)O)cc1 | 10.7%
13 | Nc1c(C(=O)O)cnn1-c1ccc([N+](=O)[O-])cc1 | 21.6%
14 | Cc1ccccc1NC(=O)NNC(=O)COc1ccc2ccccc2c1 | 3.61%
15 | Cc1ccc(-n2ncc3c2CCCC3NC(=O)CCc2cnccn2)cc1C (stereo not drawn) | 2.17%
16 | Cc1ccccc1C(=O)NC(=S)NCc1cccnc1 | 15.1%
17 | Cc1cnc(NC(=O)c2cccc(S(=O)(=O)N3CC(C)OC(C)C3)c2)s1 (stereo not drawn) | 6.45%
18 | CN(CCO)c1nc(N)c2c(N)nc3c(c2c1C#N)CC(=O)N3Cc1cccs1 | 8.52%
19 | CNc1nc(Cl)c(SC)c(NC2CCCCC2)n1 | 12.4%
20 | Cc1sc2nc(COC(=O)c3ccc(N4CCCC4)c([N+](=O)[O-])c3)[nH]c(=O)c2c1C | 6.16%
21 | CCOc1ccc2c(c1)c1nnc(SCC3CCCO3)nc1n2C (stereo not drawn) | 8.82%
22 | O=C(CCS(=O)(=O)c1ccccc1F)Nc1ccc(N2CCN(Cc3ccccc3)CC2)cc1 | 22.8%

Row | SMILES | hERG current change (%, negative = inhibition) at 1uM
23 | Cn1c(SCC(=O)Nc2ccc(N3CCOCC3)cc2)nnc1C1CC1 | 9.06%
24 | CC(C)(C)OC(=O)N1CCCC1C(=O)O (stereo not drawn) | 19.8%
25 | CCn1ccnc1CN(C)Cc1nc(-c2cccc(Cl)c2)no1 | -7.95%
26 | Nc1ncc(Br)cc1S(=O)(=O)Nc1cc(C(F)(F)F)cc(C(F)(F)F)c1 | 19.5%
27 | COC(=O)c1c(C)oc2cc(Br)c(OCC(=O)C(C)(C)C)cc12 | 16.2%
28 | CC(=O)c1ccc(OC(C)c2nc3ccccc3s2)cc1 (stereo not drawn) | 4.54%
29 | C=CCN(C(=O)CCC(=O)Nc1cc(C)on1)C(C(=O)NC1CCCC1)c1ccc(CC)cc1 (stereo not drawn) | 5.83%
30 | COCC(C)NC(=O)CSc1ncnc2sc(-c3ccccc3)cc12 (stereo not drawn) | 10.5%
31 | C=CCC1(Cl)C(=O)C(Cl)=C(N2CCN(C)CC2)C1(OC)OC (stereo not drawn) | 18.3%
32 | COc1ccc(S(=O)(=O)N2CCCOC2CNC(=O)C(=O)NCc2ccco2)cc1 (stereo not drawn) | 5.12%
33 | Cc1cccc(NS(=O)(=O)c2cccc(C(=O)NNC(=O)c3ccccc3O)c2)c1 | 12.8%
34 | Cc1cc(C(=O)N2CCCC(N3CCN(c4cccc(C(F)(F)F)c4)CC3)C2)no1 (stereo not drawn) | 7.36%
35 | Cc1ccc(Nc2nc(N)nc(CSc3nnc(C)s3)n2)cc1 | 10%
36 | CCOC(=O)C1C(=O)NC(c2ccccc2)=NC1c1ccccc1 (stereo not drawn) | 11.9%
37 | COC(=O)c1cccc(NC(=O)CC2NCCNC2=O)c1 (stereo not drawn) | 6.28%
38 | O=C(c1cc([N+](=O)[O-])ccc1N1CCNCC1)N1CCOCC1 | 6.98%
39 | O=C(O)C1Cc2ccccc2CN1C(=O)c1ccccc1Cl (stereo not drawn) | 18.3%
40 | COc1cccc(N2CCN(C3C4CC5CC(C4)CC3C5)CC2)c1 (stereo not drawn) | 9.98%
41 | Cc1ccc(-n2cnc3c(sc4nc(N5CCOCC5)c5c(c43)CCCC5)c2=O)cc1 | 16.3%
42 | O=C(CN1C(=O)CSc2ccc(S(=O)(=O)N3CCOCC3)cc21)N1CCCCC1 | 16.2%
43 | COc1cnc(-c2cccc(C(F)(F)F)c2)nc1OC | 15.6%
44 | COc1ccc(-c2nc(SC(CC(=O)NCCN3CCOCC3)c3cccs3)n[nH]2)cc1 (stereo not drawn) | 12.6%

Row | SMILES | hERG current change (%, negative = inhibition) at 1uM
45 | COc1ccc(/C=N\NC(=O)c2ccccc2F)cc1COc1ccc(F)cc1 | 16.6%
46 | CC(Oc1ccccc1)C(=O)N=C1SC2CS(=O)(=O)CC2N1Cc1ccc(F)cc1 (stereo not drawn) | 7.27%
47 | COc1ccc(NC(=O)COC(=O)c2ccc(-n3nc(C)cc3C)cc2)cc1OC | 16%
48 | O=C(CSc1ncnc2ccccc12)Nc1ccc2c(c1)OCCO2 | 11.7%
49 | Cc1cc(C(=O)N2CCCC(CCC(=O)N3CCN(c4ccccn4)CC3)C2)c(C)o1 (stereo not drawn) | 4.65%
50 | Cc1c(C(=O)O)cccc1-n1c(C)cc(/C=N/NC(=O)c2cc3ccccc3o2)c1C | 16.1%
51 | N#CC(C#N)=C(N)c1cccnc1 | 23.3%
52 | CCCCC(=O)N1CCN(c2nc3ccc(F)cc3s2)CC1 | -11.2%
53 | CC(=O)Nc1ccc(NC(=O)COC(=O)C2(c3ccc(Cl)cc3)CCCC2)cc1 | 12.5%
54 | CC1CC1C(=O)OCc1cc(=O)n2cc(Br)ccc2n1 (stereo not drawn) | 3.63%
55 | CCO[C@@H]1OC(C(=O)NCc2nc3ccccc3[nH]2)=C[C@H](c2ccccc2)[C@H]1CCCO | -6.06%
56 | Cc1ccccc1CNC(=O)C(=O)NCCC1CCCCN1S(=O)(=O)c1ccccc1 (stereo not drawn) | 3.33%
57 | CN(C)C=O.O=C(COC(=O)c1ccc(S(=O)(=O)N2CCCC2)cc1)Nc1cccnc1Cl | 23.5%
58 | Cc1cccc(NC(=S)NC(NC(=O)OCc2ccccc2)C(Cl)(Cl)Cl)c1 (stereo not drawn) | 13.1%
59 | O=C(Nc1ccc2c(c1)OCO2)C(c1ccc(Cl)cc1)N1CCC2(CC1)OCCO2 (stereo not drawn) | 3.41%
60 | CCn1cc(-c2ccccc2)c(C(=O)O)c1-c1ccc(OC)cc1 | 10.9%
61 | O=C(C1=C[C@@H]2[C@H]3C(=O)N(c4ccccc4)C(=O)[C@H]3[C@@H](C(=O)c3ccc(Cl)cc3)N2C=C1)c1ccccc1 | 10.4%
62 | CC(NCc1cccnc1)c1ccccc1 (stereo not drawn) | 12.7%
63 | Cl.c1ccc(CNC2=NCCCCC2)cc1 | 0.633%
64 | CCN(C(=O)CN1C(=O)/C(=C/c2ccccc2F)SC1=S)C1CCS(=O)(=O)C1 (stereo not drawn) | 10.2%
65 | O=C(Oc1ccc2ccccc2c1)C1CCC1 | 13.6%
66 | CC(C)CCOCC(=O)Oc1ccccc1C(=O)O | 14.2%

Row | SMILES | hERG current change (%, negative = inhibition) at 1uM
67 | Cc1ccc(C2(c3ccccc3)NC(=O)N(CC(=O)N(C)C3CCS(=O)(=O)C3)C2=O)cc1C (stereo not drawn) | 0.57%
68 | CCn1c(SCC(=O)NCC2CCCO2)nc2ccccc21 (stereo not drawn) | 5.18%
69 | CCc1cccc2c(C(=O)C(F)(F)F)cn(CC(=O)N3CCOCC3)c12 | 11.6%
70 | Cc1ccccc1NC(=O)CSc1nnc(-c2ccccc2)n1-c1ccccc1 | 5.76%
71 | Cc1nc2nc(CSc3nc4ccccc4s3)cc(=O)n2[nH]1 | 13%
72 | CC(NC(=O)/C(=C/c1ccc(OC(F)F)cc1)c1ccccc1)c1ccccc1 (stereo not drawn) | -15.4%
73 | COc1cccc(-c2c3c([nH]c(=O)c2C#N)CCc2cc(OC)ccc2-3)c1 | 15.3%
74 | Cl.Fc1ccc(Cn2nnnc2CN2CCc3ccccc3C2)cc1 | 7.64%
75 | Cc1cc(S(=O)(=O)N(Cc2ccccc2Cl)c2ccc3c(c2)CCC3)ccc1-n1cnnn1 | 19.2%
76 | O=C(Oc1ccccc1O)c1cccc2ccccc12 | 6.76%
77 | COc1ccc(C(=O)NNC(=O)CN2CCC(n3nnc4cc(F)ccc43)CC2)cc1 | -2.92%
78 | CCCCOP(=O)(c1ccc(N(C)C)cc1)C(O)c1ccc(N(C)C)cc1 (stereo not drawn) | -3.17%
79 | O=C(CSCc1ccccc1)Nc1ccccc1C(=O)Nc1ccc(C(=O)O)cc1 | 11%
80 | O=C(Nc1sc2c(c1C(=O)NCc1cccnc1)CCCC2)c1ccco1 | 14.8%
81 | COc1ccc(/C=C2/SC(=S)N(CCC(=O)O)C2=O)cc1 | -3.44%
82 | Cc1ccc(C)c(N2CCN(C(=O)Cn3ncn4cccc4c3=O)CC2)c1 | 11.7%
83 | CN(CC(=O)Nc1cccc(F)c1)C(=O)c1cccc(S(=O)(=O)N2CC3(C)CC2CC(C)(C)C3)c1 (stereo not drawn) | 11.3%
84 | Cc1nn(-c2ccc(N3CCOCC3)nn2)c(C)c1CCC(=O)NCc1ccccc1 | 1.86%
85 | COCCN(C(=O)CSc1n[nH]c(-c2ccccc2)n1)c1c(N)n(Cc2ccccc2)c(=O)[nH]c1=O | -2.36%
86 | CCC(C)NC(=O)c1cn(CC)c2ccc(S(=O)(=O)N3CCCCCC3)cc2c1=O (stereo not drawn) | 2.25%
87 | CCN1C(=O)[C@@H]2[C@@H](c3ccc(-c4ccc5c(c4)OCO5)c(OC)c3)N3CCCC[C@@]3(C(=O)OC)[C@@H]2C1=O.O=C(O)C(F)(F)F | 11.4%
